{
  "sequences": {"note": "Amino acid sequences for entries named in this document (tags omitted). A change or cut given only in a name is not applied to a line headed by its entry. Residues count along the entry.", "UniProt O43734": "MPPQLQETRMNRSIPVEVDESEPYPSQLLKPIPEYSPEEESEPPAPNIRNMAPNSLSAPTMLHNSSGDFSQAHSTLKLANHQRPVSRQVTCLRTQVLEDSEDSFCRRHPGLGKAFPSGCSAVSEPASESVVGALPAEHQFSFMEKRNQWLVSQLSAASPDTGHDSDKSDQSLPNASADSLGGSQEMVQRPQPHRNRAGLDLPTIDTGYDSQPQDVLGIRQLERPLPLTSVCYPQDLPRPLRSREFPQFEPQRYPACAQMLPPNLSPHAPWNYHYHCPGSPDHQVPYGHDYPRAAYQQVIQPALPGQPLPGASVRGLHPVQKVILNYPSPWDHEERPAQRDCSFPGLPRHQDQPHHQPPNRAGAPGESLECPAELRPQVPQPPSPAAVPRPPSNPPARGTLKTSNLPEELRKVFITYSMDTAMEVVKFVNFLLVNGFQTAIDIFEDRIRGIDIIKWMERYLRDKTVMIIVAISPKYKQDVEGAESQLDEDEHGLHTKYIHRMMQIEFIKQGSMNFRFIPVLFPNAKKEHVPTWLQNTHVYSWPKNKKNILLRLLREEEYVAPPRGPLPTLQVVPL", "UniProt P46531": "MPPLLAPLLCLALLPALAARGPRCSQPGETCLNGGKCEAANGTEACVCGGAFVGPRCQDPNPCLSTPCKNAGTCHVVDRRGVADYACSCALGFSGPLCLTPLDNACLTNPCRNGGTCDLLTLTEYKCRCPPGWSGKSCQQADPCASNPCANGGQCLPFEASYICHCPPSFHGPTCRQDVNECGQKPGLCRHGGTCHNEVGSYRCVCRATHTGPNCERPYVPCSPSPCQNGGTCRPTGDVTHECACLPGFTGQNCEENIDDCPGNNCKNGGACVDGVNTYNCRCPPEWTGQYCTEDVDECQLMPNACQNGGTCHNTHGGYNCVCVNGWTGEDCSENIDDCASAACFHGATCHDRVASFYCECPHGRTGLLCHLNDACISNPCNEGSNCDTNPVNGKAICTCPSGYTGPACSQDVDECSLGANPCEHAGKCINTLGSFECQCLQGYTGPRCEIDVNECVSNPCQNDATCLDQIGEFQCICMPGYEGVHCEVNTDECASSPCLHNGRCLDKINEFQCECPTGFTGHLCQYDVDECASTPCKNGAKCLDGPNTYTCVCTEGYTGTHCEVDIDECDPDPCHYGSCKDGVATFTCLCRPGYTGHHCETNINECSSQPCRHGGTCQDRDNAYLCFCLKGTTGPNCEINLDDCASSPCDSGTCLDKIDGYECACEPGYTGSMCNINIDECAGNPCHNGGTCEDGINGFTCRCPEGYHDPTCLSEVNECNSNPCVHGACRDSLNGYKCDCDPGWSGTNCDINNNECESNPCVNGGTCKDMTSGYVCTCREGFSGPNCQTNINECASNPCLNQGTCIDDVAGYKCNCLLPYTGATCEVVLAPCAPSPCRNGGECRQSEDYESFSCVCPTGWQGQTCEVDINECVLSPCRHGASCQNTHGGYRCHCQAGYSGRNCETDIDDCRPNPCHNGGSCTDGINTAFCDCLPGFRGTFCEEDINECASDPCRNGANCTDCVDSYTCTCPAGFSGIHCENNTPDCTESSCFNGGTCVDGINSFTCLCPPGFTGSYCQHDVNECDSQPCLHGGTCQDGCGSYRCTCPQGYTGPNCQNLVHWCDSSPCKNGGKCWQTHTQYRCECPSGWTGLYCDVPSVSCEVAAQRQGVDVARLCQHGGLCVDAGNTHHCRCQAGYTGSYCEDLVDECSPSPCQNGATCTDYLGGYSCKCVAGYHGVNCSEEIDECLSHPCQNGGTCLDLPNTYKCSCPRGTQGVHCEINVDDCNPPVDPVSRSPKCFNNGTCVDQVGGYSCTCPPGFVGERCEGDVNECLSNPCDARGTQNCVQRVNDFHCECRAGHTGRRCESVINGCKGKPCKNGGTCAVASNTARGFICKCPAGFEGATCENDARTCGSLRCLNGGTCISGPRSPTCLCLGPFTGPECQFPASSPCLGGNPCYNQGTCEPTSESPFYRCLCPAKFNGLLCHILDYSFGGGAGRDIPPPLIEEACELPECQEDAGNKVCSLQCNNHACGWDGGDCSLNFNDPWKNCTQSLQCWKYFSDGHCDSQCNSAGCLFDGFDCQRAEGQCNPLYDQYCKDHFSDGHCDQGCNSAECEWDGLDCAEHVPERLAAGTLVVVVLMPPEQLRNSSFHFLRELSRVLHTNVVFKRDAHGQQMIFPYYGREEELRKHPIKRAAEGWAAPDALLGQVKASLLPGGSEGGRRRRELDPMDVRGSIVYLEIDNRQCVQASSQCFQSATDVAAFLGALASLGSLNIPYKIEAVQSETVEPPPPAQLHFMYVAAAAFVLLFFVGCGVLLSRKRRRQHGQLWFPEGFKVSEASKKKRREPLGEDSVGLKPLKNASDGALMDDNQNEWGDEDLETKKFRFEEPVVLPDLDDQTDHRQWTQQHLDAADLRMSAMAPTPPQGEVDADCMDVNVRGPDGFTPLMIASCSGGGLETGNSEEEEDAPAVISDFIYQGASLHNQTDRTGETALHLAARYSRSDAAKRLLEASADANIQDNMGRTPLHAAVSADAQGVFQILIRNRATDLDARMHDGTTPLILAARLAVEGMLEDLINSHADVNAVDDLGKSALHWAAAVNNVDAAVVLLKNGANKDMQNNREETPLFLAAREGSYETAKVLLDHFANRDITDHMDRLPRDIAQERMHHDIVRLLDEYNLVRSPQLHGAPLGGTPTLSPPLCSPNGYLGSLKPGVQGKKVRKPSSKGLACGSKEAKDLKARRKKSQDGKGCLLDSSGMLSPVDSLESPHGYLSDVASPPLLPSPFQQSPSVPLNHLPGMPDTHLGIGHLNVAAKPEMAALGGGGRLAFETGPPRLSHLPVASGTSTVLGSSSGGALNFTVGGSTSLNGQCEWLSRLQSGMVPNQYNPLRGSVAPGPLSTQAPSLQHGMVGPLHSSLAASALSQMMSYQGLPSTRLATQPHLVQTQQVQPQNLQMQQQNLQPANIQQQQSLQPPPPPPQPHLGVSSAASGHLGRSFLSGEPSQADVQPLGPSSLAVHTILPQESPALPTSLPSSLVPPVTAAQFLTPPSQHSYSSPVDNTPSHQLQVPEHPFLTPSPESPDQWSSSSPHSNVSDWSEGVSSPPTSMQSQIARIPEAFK", "FLAG-NOTCH1": "residues 19-2555 of P46531", "UniProt Q06330": "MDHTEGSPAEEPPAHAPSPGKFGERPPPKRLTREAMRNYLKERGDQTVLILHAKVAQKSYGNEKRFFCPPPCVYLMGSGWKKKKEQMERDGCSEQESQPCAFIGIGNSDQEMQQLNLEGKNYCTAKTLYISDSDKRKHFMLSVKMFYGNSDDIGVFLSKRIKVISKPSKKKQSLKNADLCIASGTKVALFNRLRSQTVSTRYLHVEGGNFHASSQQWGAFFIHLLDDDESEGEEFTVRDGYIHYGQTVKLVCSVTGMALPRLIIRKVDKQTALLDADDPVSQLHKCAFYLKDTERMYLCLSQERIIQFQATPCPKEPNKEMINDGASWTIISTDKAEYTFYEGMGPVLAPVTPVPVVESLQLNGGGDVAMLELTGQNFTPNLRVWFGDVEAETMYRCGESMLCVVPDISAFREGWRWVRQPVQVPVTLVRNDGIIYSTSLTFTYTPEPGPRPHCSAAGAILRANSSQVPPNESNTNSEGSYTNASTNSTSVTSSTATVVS", "UniProt P31266": "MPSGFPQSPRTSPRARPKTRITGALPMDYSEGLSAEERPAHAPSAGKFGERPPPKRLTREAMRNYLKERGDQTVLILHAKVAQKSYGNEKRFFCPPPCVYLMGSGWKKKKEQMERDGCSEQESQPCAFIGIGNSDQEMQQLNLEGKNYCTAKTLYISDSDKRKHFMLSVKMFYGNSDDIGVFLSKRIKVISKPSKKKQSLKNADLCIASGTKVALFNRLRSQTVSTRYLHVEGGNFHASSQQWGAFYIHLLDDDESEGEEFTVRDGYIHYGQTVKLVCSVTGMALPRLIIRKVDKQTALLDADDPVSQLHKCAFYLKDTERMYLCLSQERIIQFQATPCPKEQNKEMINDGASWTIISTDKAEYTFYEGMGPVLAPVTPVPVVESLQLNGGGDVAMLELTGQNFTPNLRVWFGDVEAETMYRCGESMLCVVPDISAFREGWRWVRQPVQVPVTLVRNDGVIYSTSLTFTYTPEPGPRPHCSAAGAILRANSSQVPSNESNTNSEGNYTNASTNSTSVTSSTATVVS"},
  "source": "paper PMC5460031",
  "key": {"[1]": {"biological_target": "T1, FLAG-tagged IL-17RA (human) (UniProt Q96F46)", "T1 sequence": "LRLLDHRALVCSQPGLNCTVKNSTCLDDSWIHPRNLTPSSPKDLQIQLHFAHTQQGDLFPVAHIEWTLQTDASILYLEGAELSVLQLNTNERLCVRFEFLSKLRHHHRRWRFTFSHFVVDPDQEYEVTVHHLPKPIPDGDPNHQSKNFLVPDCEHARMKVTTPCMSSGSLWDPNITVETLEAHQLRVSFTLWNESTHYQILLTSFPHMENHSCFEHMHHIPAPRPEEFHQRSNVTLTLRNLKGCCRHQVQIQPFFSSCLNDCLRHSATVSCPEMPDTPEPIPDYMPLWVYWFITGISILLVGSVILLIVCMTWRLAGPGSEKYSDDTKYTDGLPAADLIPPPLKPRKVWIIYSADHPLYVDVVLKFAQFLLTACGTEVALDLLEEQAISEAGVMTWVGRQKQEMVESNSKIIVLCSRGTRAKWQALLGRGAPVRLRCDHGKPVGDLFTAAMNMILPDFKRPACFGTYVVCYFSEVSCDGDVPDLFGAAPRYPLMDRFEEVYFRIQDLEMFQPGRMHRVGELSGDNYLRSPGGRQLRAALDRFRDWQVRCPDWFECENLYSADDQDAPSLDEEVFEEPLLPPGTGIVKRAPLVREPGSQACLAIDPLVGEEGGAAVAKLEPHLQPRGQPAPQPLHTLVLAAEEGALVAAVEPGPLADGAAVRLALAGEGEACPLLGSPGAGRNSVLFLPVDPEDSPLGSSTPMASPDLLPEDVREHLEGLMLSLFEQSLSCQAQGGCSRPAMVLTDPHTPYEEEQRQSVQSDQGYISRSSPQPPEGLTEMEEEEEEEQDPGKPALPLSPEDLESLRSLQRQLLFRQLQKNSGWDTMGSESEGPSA", "assay": "co-IP; HEK293 cells transfected with tagged constructs; lysis buffer with 0.5% Triton X-100, 20 mM HEPES pH 7.4, 150 mM NaCl; 1 μg antibody and A-Sepharose beads at 4 °C overnight; immunoblot"}, "[2]": {"biological_target": "T2, FLAG-tagged IL-17RA Δ33–320 (human) (UniProt Q96F46)", "T2 sequence": "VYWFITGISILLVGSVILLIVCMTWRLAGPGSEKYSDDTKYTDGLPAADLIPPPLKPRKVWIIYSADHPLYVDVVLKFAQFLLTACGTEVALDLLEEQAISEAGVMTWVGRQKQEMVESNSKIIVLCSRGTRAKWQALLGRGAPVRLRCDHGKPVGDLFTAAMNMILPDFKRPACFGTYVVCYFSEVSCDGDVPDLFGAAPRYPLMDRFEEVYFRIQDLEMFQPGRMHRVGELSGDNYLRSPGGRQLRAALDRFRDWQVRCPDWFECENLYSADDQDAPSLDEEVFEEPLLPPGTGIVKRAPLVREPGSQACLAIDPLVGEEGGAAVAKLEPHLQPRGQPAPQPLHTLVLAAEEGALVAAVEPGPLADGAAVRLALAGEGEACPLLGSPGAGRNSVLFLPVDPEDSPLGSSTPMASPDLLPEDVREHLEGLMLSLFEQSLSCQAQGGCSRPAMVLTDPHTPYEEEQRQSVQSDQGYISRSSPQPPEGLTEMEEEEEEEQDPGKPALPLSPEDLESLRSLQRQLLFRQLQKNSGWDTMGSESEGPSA", "assay": "co-IP; HEK293 cells transfected with tagged constructs; lysis buffer with 0.5% Triton X-100, 20 mM HEPES pH 7.4, 150 mM NaCl; 1 μg antibody and A-Sepharose beads at 4 °C overnight; immunoblot"}, "HA–Act1 (human)": {"biological_target": "HA–Act1 (human) (UniProt O43734)", "assay": "co-IP; HEK293 cells transfected with tagged constructs; lysis buffer with 0.5% Triton X-100, 20 mM HEPES pH 7.4, 150 mM NaCl; 1 μg antibody and A-Sepharose beads at 4 °C overnight; immunoblot"}, "V5-IL-17RA (human)": {"biological_target": "T3, V5-IL-17RA (human) (UniProt Q96F46)", "T3 sequence": "T1 sequence", "assay": "co-IP; HEK293 cells transfected with tagged constructs; lysis buffer with 0.5% Triton X-100, 20 mM HEPES pH 7.4, 150 mM NaCl; 1 μg antibody and A-Sepharose beads at 4 °C overnight; immunoblot"}, "FLAG-NOTCH1 (human) [3]": {"biological_target": "FLAG-NOTCH1 (human) (UniProt P46531)", "assay": "proximity ligation; in situ PLA (Duolink In Situ Red) in transfected, fixed HeLa cells; rabbit anti-FLAG with mouse anti-HA or mouse anti-V5"}, "FLAG-NOTCH1 (human) [4]": {"biological_target": "FLAG-NOTCH1 (human) (UniProt P46531)", "assay": "co-IP; HEK293 cells transfected with tagged constructs; lysis buffer with 0.5% Triton X-100, 20 mM HEPES pH 7.4, 150 mM NaCl; 1 μg antibody and A-Sepharose beads at 4 °C overnight; immunoblot"}, "[5]": {"biological_target": "RBP-J (endogenous, HEK293 cells) (human (endogenous in HEK293)) (UniProt Q06330)", "assay": "co-IP; HEK293 cells transfected with tagged constructs; lysis buffer with 0.5% Triton X-100, 20 mM HEPES pH 7.4, 150 mM NaCl; 1 μg antibody and A-Sepharose beads at 4 °C overnight; immunoblot"}, "[6]": {"biological_target": "T4, Act1 (endogenous, mouse OPCs) (mouse (endogenous in OPCs)) (UniProt Q8N7N6)", "T4 sequence": "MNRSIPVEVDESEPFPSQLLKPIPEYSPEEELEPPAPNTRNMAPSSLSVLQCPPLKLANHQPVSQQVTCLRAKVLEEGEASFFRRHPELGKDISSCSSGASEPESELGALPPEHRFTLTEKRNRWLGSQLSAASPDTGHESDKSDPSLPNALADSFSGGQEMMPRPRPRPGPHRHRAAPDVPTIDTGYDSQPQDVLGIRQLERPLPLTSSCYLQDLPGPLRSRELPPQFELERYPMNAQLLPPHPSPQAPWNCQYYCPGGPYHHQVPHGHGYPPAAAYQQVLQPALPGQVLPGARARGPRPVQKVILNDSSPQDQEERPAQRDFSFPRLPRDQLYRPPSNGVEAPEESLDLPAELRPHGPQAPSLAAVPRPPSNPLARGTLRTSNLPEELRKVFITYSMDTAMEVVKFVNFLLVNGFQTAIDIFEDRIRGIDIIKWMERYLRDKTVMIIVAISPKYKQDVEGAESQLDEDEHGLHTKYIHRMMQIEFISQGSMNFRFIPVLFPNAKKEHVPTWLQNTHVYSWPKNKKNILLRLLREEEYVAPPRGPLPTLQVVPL", "assay": "co-IP; wild-type mouse OPCs co-cultured with Act1 KO astrocytes, stimulated with IL-17 (50 ng ml^−1) for the indicated times; lysates immunoprecipitated with anti-Act1 antibody; immunoblot"}},
  "note": "No constants are given. Whether binding was seen depends on the method and setting. Binding seen in cells or lysates may run through a third protein. Some binding calls cover weakened binding; strength is not graded here. For part of these data: Sequences can lack the tags named with a protein.",
  "data": [
    {"substance": "GFP–NECD1 (from UniProt P46531 19-1735) (domain or fragment)", "values": [
      {"measurement": "binding", "setting": "[1]", "value": "binds"},
      {"measurement": "binding", "setting": "[2]", "value": "no binding"},
      {"measurement": "binding", "setting": "HA–Act1 (human)", "value": "no binding"},
      {"measurement": "binding", "setting": "V5-IL-17RA (human)", "value": "binds"}
    ]},
    {"substance": "HA–Act1 (from UniProt O43734 1-574)", "values": [
      {"measurement": "binding", "setting": "FLAG-NOTCH1 (human) [3]", "value": "binds"},
      {"measurement": "binding", "setting": "FLAG-NOTCH1 (human) [4]", "value": "binds"},
      {"measurement": "binding", "setting": "[5]", "value": "binds"}
    ]},
    {"substance": "NOTCH1 (endogenous, mouse OPCs) (from UniProt Q01705 19-2531) (receptor)", "values": [
      {"measurement": "binding", "setting": "[6]", "value": "binds"}
    ]},
    {"substance": "RBP-J (endogenous, mouse OPC co-culture) (from UniProt P31266 1-526)", "values": [
      {"measurement": "binding", "setting": "[6]", "value": "binds"}
    ]}
  ]
}
